From patent US20240067729A1 (PALLEON PHARMACEUTICALS, published 2024)

Tests used:
[1] = molecular target: T1, human PD-L1, his tagged (hPD-L1-his) (human, UniProt Q9NZQ7 part only, limits assumed); experiment: BLI (ForteBio Octet), human PD-L1
T1 construct: also called huPD-L1-His; recombinant human PD-L1; not shown: his tag

[2] = molecular target: T2, cynomolgus PD-L1, his tagged (cPD-L1-his) (cynomolgus (Macaca fascicularis), UniProt G7PSE7 19-238); experiment: BLI (ForteBio Octet), cynomolgus PD-L1
T2 construct: also called cyPD-L1-His; Cyno PD-L1

[3] = molecular target: T3, human PD-L1 expressed on cells (HCC827, NCI-H292, CHO-PD-L1, engineered CHO-K1) (human, UniProt Q9NZQ7); experiment: flow cytometry on NCI-H292 cells, apparent Kd
T3 construct: whole, on cells; Endogenous on the human lung lines HCC827 and NCI-H292; transfected on CHO cells; also called PD-L1 on HCC827; PD-L1 on NCI-H292
Method: (§1) The ability of PD-L1 antibody sialidase conjugates to bind PD-L1 on HCC827 and NCI-H292 cells was examined next. […] After washing with staining buffer, cells were incubated with AF647 Goat anti-human IgG(H+L) in staining buffer at 4° C. for 30 min. After 2× wash with staining buffer, cells were fixed and run on FACSCelesta.

[4] = molecular target: T3, human PD-L1 expressed on cells (HCC827, …); experiment: flow cytometry on HCC827 cells, apparent Kd; calculated using data points up to 11 nM
Method: as §1

[5] = molecular target: T1, human PD-L1, his tagged (hPD-L1-his); experiment: BLI (ForteBio Octet), recombinant human PD-L1
[6] = molecular target: T3, human PD-L1 expressed on cells (HCC827, …); experiment: cell-based or functional assay

T1 sequence (Q9NZQ7 19-238 limits assumed): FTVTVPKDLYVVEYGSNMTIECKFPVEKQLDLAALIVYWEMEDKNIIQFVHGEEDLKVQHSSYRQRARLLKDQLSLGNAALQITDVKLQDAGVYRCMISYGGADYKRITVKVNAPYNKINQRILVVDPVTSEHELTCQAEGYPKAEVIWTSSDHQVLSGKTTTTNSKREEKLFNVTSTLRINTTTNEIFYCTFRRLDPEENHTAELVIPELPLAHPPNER
T2 sequence (G7PSE7 entry or part of it limits assumed, form in doubt): as the sequence (Q9NZQ7 19-238 limits assumed) above, with A33T, A34S, S62N, R68Q, Q82R, F173L, T185A, T192I, H215L counted along it

| Binder | Kd [1] [nM] | koff [1] [s⁻¹] | kon [1] [M⁻¹ s⁻¹] | Kd [2] [nM] | koff [2] [s⁻¹] | kon [2] [M⁻¹ s⁻¹] | Kd [3] [nM] | Kd [4] [nM] | Kd [5] [nM] | koff [5] [s⁻¹] | kon [5] [M⁻¹ s⁻¹] | EC50 (NFAT-luciferase fold induction), first of three lots [6] [nM] | EC50 (NFAT-luciferase fold induction), second of three lots [6] [nM] | EC50 (NFAT-luciferase fold induction), third of three lots [6] [nM] |
| --- | --- | --- | --- | --- | --- | --- | --- | --- | --- | --- | --- | --- | --- | --- |
| ASC3 (Janus PD-L1 antibody sialidase conjugate) (other, One h769.T antibody arm plus one mutant Neu2-Fc chain; human IgG1 Fc with N297A) light: EIVMTQSPPTLSLSPGERVTLSCRASQSVSNDLSWYQQKPGQAPRLLIYYASIRFTGIPARFSGSGSGTDFTLTISSLQPEDFAVYYCQQDYTSPWTFGQGTKVEIKRTVAAPSVFIFPPSDEQLKSGTASVVCLLNNFYPREAKVQWKVDNALQSGNSQESVTEQDSKDSTYSLSSTLTLSKADYEKHKVYACEVTHQGLSSPVTKSFNRGEC heavy: EVQLVQSGAEVKKPGATVKISCKVSGFNIKDTYMHWVQQAPGKGLEWMGLIDPANDNTIYAEKFQGRVTITADTSTDTAYMELSSLRSEDTAVYYCAREGYGGSYGEGYWGQGTLVTVSSASTKGPSVFPLAPSSKSTSGGTAALGCLVKDYFPEPVTVSWNSGALTSGVHTFPAVLQSSGLYSLSSVVTVPSSSLGTQTYICNVNHKPSNTKVDKKV[omitted - human IgG1 Fc with N297A Y407T (EU numbers)] DASLPYLQKESVFQSGAHAYRIPALLYLPGQQSLLAFAEQRASKKDEHAELIVLRRGDYDAGTHQVQWQAQEVVAQARLDGHRSMNPCPLYDEQTGTLFLFFIAIPGQVTEQQQLQTRANVTRLCYVTSTDHGRTWSSPRDLTDAAIGPAYREWSTFAVGPGHCLQLHDRARSLVVPAYAYRKLHPKQRPIPSAFCFLSHDHGRTWARGHFVAQDTLECQVAEVETGEQRVVTLNARSHLRFRVQAQSTNDGLDFQESQLVKKLVEPPPTGCQGSVISFPSPRSGPGSPAQWLLYTHPTHSWQRADLGAYLNPRPPAPEAWSEPVLLAKGSAAYSDLQSMGTGPDGSPLFGCLYEANDYEEIVFLMFTLKQAFPAEYLPQ[omitted - human IgG1 Fc with C220S N297A T366Y (EU numbers)] | 1.73 | 0.000751 | 436000 | 2.26 | 0.000821 | 367000 | 0.193 | 0.233 |  |  |  |  |  |  |
| ASC1 (Janus PD-L1 antibody sialidase conjugate) (other, One h769.T antibody arm plus one Neu2 (M1D, V6Y, P62G, A93E, I187K, C332A)-Fc chain; human IgG1 Fc with N297A, knob/hole) light: EIVMTQSPPTLSLSPGERVTLSCRASQSVSNDLSWYQQKPGQAPRLLIYYASIRFTGIPARFSGSGSGTDFTLTISSLQPEDFAVYYCQQDYTSPWTFGQGTKVEIKRTVAAPSVFIFPPSDEQLKSGTASVVCLLNNFYPREAKVQWKVDNALQSGNSQESVTEQDSKDSTYSLSSTLTLSKADYEKHKVYACEVTHQGLSSPVTKSFNRGEC heavy: EVQLVQSGAEVKKPGATVKISCKVSGFNIKDTYMHWVQQAPGKGLEWMGLIDPANDNTIYAEKFQGRVTITADTSTDTAYMELSSLRSEDTAVYYCAREGYGGSYGEGYWGQGTLVTVSSASTKGPSVFPLAPSSKSTSGGTAALGCLVKDYFPEPVTVSWNSGALTSGVHTFPAVLQSSGLYSLSSVVTVPSSSLGTQTYICNVNHKPSNTKVDKKV[omitted - human IgG1 Fc with N297A T366Y (EU numbers)] DASLPYLQKESVFQSGAHAYRIPALLYLPGQQSLLAFAEQRASKKDEHAELIVLRRGDYDAGTHQVQWQAQEVVAQARLDGHRSMNPCPLYDEQTGTLFLFFIAIPGQVTEQQQLQTRANVTRLCQVTSTDHGRTWSSPRDLTDAAIGPAYREWSTFAVGPGHCLQLHDRARSLVVPAYAYRKLHPKQRPIPSAFCFLSHDHGRTWARGHFVAQDTLECQVAEVETGEQRVVTLNARSHLRARVQAQSTNDGLDFQESQLVKKLVEPPPQGCQGSVISFPSPRSGPGSPAQWLLYTHPTHSWQRADLGAYLNPRPPAPEAWSEPVLLAKGSAAYSDLQSMGTGPDGSPLFGCLYEANDYEEIVFLMFTLKQAFPAEYLPQ[omitted - human IgG1 Fc with C220S N297A Y407T (EU numbers)] |  |  |  |  |  |  |  |  | 1.72 | 0.000766 | 456000 |  |  |  |
| ASC4 loss of function (ASC4 LOF), Janus PD-L1 antibody sialidase conjugate with inactive sialidase (other, human IgG1 Fc with N297A) light: EIVMTQSPPTLSLSPGERVTLSCRASQSVSNDLSWYQQKPGQAPRLLIYYASIRFTGIPARFSGSGSGTDFTLTISSLQPEDFAVYYCQQDYTSPWTFGQGTKVEIKRTVAAPSVFIFPPSDEQLKSGTASVVCLLNNFYPREAKVQWKVDNALQSGNSQESVTEQDSKDSTYSLSSTLTLSKADYEKHKVYACEVTHQGLSSPVTKSFNRGEC heavy: EVQLVQSGAEVKKPGATVKISCKVSGFNIKDTYMHWVQQAPGKGLEWMGLIDPANDNTIYAEKFQGRVTITADTSTDTAYMELSSLRSEDTAVYYCAREGYGGSYGEGYWGQGTLVTVSSASTKGPSVFPLAPSSKSTSGGTAALGCLVKDYFPEPVTVSWNSGALTSGVHTFPAVLQSSGLYSLSSVVTVPSSSLGTQTYICNVNHKPSNTKVDKKV[omitted - human IgG1 Fc with N297A Y407T (EU numbers)] DASLPYLQDESVFQSGAHAYRIPALLYLPGQQSLLAFAEQRASKKDEHAELIVLRRGDYDAPTHQVQWQAQEVVAQARLDGHRSMNPCPLYDEQTGTLFLFFIAIPGQVTEQQQLQTRANVTRLCQVTSTDHGRTWSSPRDLTDAAIGPAYREWSTFAVGPGHCLQLHDRARSLVVPAYAYRKLHPKQRPIPSAFCFLSHDHGRTWARGHFVAQDTLANQVAEVETGEQRVVTLNARSHLRARVQAQSTNDGLDFQESQLVKKLVEPPPQGCQGSVISFPSPRSGPGSPAQWLLYTHPTHSWQRADLGAYLNPRPPAPEAWSEPVLLAKGSAAYSDLQSMGTGPDGSPLFGCLYEANDYEEIRFRMFTLKQAFPAEYLPQ[omitted - human IgG1 Fc with C220S N297A T366Y (EU numbers)] | 1.79 | 0.000755 | 449000 | 1.04 | 0.00039 | 423000 | 0.445 | 0.56 |  |  |  |  |  |  |
| ASC5 (Janus PD-L1 antibody sialidase conjugate) (other, One h769.T antibody arm plus one mutant Neu2-Fc chain; human IgG1 Fc with N297A) light: EIVMTQSPPTLSLSPGERVTLSCRASQSVSNDLSWYQQKPGQAPRLLIYYASIRFTGIPARFSGSGSGTDFTLTISSLQPEDFAVYYCQQDYTSPWTFGQGTKVEIKRTVAAPSVFIFPPSDEQLKSGTASVVCLLNNFYPREAKVQWKVDNALQSGNSQESVTEQDSKDSTYSLSSTLTLSKADYEKHKVYACEVTHQGLSSPVTKSFNRGEC heavy: EVQLVQSGAEVKKPGATVKISCKVSGFNIKDTYMHWVQQAPGKGLEWMGLIDPANDNTIYAEKFQGRVTITADTSTDTAYMELSSLRSEDTAVYYCAREGYGGSYGEGYWGQGTLVTVSSASTKGPSVFPLAPSSKSTSGGTAALGCLVKDYFPEPVTVSWNSGALTSGVHTFPAVLQSSGLYSLSSVVTVPSSSLGTQTYICNVNHKPSNTKVDKKV[omitted - human IgG1 Fc with N297A Y407T (EU numbers)] DASLPYLQKESVFQSGAHAYRIPALLYLPGQQSLLAFAEQRRSKKDEHAELIVLRRGDYDAGTHQVQWQAQEVVAQARLDGHRSMNPCPLYDEQTGTLFLFFIAIPGQVTEQQQLQTRANVTRLCYVTSTDHGRTWSSPRDLTDAAIGPAYREWSTFAVGPGHCLQLHDRARSLVVPAYAYRKLHPKQRPIPSAFCFLSHDHGRTWARGHFVAQDTLECQVAEVETGEQRVVTLNARSHLRFRVQAQSTNDGLDFQESQLVKKLVEPPPTGCQGSVISFPSPRSGPGSPAQWLLYTHPTHSWQRADLGAYLNPRPPAPEAWSEPVLLAKGSAAYSDLQSMGTGPDGSPLFGCLYEANDYEEIVFLMFTLKQAFPAEYLPQ[omitted - human IgG1 Fc with C220S N297A T366Y (EU numbers)] | 1.66 | 0.000721 | 433000 | 1.23 | 0.000438 | 369000 | 0.363 | 0.455 |  |  |  | 11.5 | 11.6 | 12.7 |
